Article PMC6518801
Results are given in words; binding and its absence hold for the method and conditions named. In cells and extracts the contact can be indirect. Some binding calls cover weakened binding; strength is not graded here. For some assays here: Tags and fused reporters may be left off the sequences shown.

Tests used:
HA-c-Cbl 1-655 = HA-c-Cbl 1-655 (UniProt P22681); experiment: co-IP; 293T cells co-transfected with FLAG-TRAF6 and HA-c-Cbl constructs, 36 h; lysis in 0.5% Nonidet P-40, 50 mM Tris-HCl pH 8.0, 150 mM NaCl, 1 mM EDTA; IP with anti-HA or anti-FLAG Ab 2 h at 4 °C, protein G-agarose; western blot with anti-FLAG or anti-HA
HA c-Cbl 1-421 = HA c-Cbl 1-421 (UniProt P22681); experiment: as above
[1] = target: HA-tagged c-Cbl G306E mutant (UniProt P22681); experiment: as above
HA c-Cbl 1-436 = HA c-Cbl 1-436 (UniProt P22681); experiment: as above
[2] = target: HA-tagged wild-type c-Cbl (UniProt P22681); experiment: as above
HA c-Cbl-1-357 = HA c-Cbl-1-357 (UniProt P22681); experiment: as above
HA c-Cbl 1-480 = HA c-Cbl 1-480 (UniProt P22681); experiment: as above
[3] = target: endogenous c-Cbl (not stated (endogenous in osteoclasts and bone marrow macrophages)) (UniProt P22682); experiment: co-IP; endogenous proteins; bone marrow macrophages (M-CSF 30 ng/ml, three days), stimulated with IFN-γ (20 ng/ml) for the indicated times; 0.5% Nonidet P-40 lysis buffer; IP with anti-cbl Ab, blot with anti-TRAF6
[4] = target: endogenous c-Cbl (not stated (endogenous in osteoclasts and bone marrow macrophages)) (UniProt P22682); experiment: co-IP; endogenous proteins; osteoclasts differentiated from bone marrow precursors, stimulated with RANKL for the indicated times; 0.5% Nonidet P-40 lysis buffer; IP with anti-cbl Ab, blot with anti-TRAF6

B1: FLAG-tagged wild-type TRAF6 (tumor necrosis factor receptor-associated factor 6) (protein, UniProt P70196 1-530)
chain: MSLLNCENSCGSSQSSSDCCAAMAASCSAAVKDDSVSGSASTGNLSSSFMEEIQGYDVEFDPPLESKYECPICLMALREAVQTPCGHRFCKACIIKSIRDAGHKCPVDNEILLENQLFPDNFAKREILSLTVKCPNKGCLQKMELRHLEDHQVHCEFALVNCPQCQRPFQKCQVNTHIIEDCPRRQVSCVNCAVSMAYEEKEIHDQSCPLANIICEYCGTILIREQMPNHYDLDCPTAPIPCTFSVFGCHEKMQRNHLARHLQENTQLHMRLLAQAVHNVNLALRPCDAASPSRGCRPEDPNYEETIKQLESRLVRQDHQIRELTAKMETQSMYVGELKRTIRTLEDKVAEMEAQQCNGIYIWKIGNFGMHLKSQEEERPVVIHSPGFYTGRPGYKLCMRLHLQLPTAQRCANYISLFVHTMQGEYDSHLPWPFQGTIRLTILDQSEALIRQNHEEVMDAKPELLAFQRPTIPRNPKGFGYVTFMHLEALRQGTFIKDDTLLVRCEVSTRFDMGGLRKEGFQPRSTDAGV
- binding (HA-c-Cbl 1-655): binds
- binding (HA c-Cbl 1-421): binds weakly
- binding [1]: binds
- binding (HA c-Cbl 1-436): binds weakly
- binding [2]: binds
- binding (HA c-Cbl-1-357): no binding
- binding (HA c-Cbl 1-480): binds

B2: Flag-TRAF6-132-530 (domain or fragment, UniProt P70196 132-530)
chain: VKCPNKGCLQKMELRHLEDHQVHCEFALVNCPQCQRPFQKCQVNTHIIEDCPRRQVSCVNCAVSMAYEEKEIHDQSCPLANIICEYCGTILIREQMPNHYDLDCPTAPIPCTFSVFGCHEKMQRNHLARHLQENTQLHMRLLAQAVHNVNLALRPCDAASPSRGCRPEDPNYEETIKQLESRLVRQDHQIRELTAKMETQSMYVGELKRTIRTLEDKVAEMEAQQCNGIYIWKIGNFGMHLKSQEEERPVVIHSPGFYTGRPGYKLCMRLHLQLPTAQRCANYISLFVHTMQGEYDSHLPWPFQGTIRLTILDQSEALIRQNHEEVMDAKPELLAFQRPTIPRNPKGFGYVTFMHLEALRQGTFIKDDTLLVRCEVSTRFDMGGLRKEGFQPRSTDAGV
- binding [2]: binds

B3: Flag-TRAF6-212-530 (domain or fragment, UniProt P70196 212-530)
chain: NIICEYCGTILIREQMPNHYDLDCPTAPIPCTFSVFGCHEKMQRNHLARHLQENTQLHMRLLAQAVHNVNLALRPCDAASPSRGCRPEDPNYEETIKQLESRLVRQDHQIRELTAKMETQSMYVGELKRTIRTLEDKVAEMEAQQCNGIYIWKIGNFGMHLKSQEEERPVVIHSPGFYTGRPGYKLCMRLHLQLPTAQRCANYISLFVHTMQGEYDSHLPWPFQGTIRLTILDQSEALIRQNHEEVMDAKPELLAFQRPTIPRNPKGFGYVTFMHLEALRQGTFIKDDTLLVRCEVSTRFDMGGLRKEGFQPRSTDAGV
- binding [2]: binds

B4: endogenous polyubiquitinated TRAF6 (protein, UniProt P70196 1-530)
chain: B1 chain
modifications: polyubiquitinated (sites not given)
- binding [3]: binds
- binding [4]: binds

B5: Flag-TRAF6-1-289 (domain or fragment, UniProt P70196 1-289)
chain: MSLLNCENSCGSSQSSSDCCAAMAASCSAAVKDDSVSGSASTGNLSSSFMEEIQGYDVEFDPPLESKYECPICLMALREAVQTPCGHRFCKACIIKSIRDAGHKCPVDNEILLENQLFPDNFAKREILSLTVKCPNKGCLQKMELRHLEDHQVHCEFALVNCPQCQRPFQKCQVNTHIIEDCPRRQVSCVNCAVSMAYEEKEIHDQSCPLANIICEYCGTILIREQMPNHYDLDCPTAPIPCTFSVFGCHEKMQRNHLARHLQENTQLHMRLLAQAVHNVNLALRPCDA
- binding [2]: binds

B6: Flag-TRAF6-69-530 (domain or fragment, UniProt P70196 69-530)
chain: ECPICLMALREAVQTPCGHRFCKACIIKSIRDAGHKCPVDNEILLENQLFPDNFAKREILSLTVKCPNKGCLQKMELRHLEDHQVHCEFALVNCPQCQRPFQKCQVNTHIIEDCPRRQVSCVNCAVSMAYEEKEIHDQSCPLANIICEYCGTILIREQMPNHYDLDCPTAPIPCTFSVFGCHEKMQRNHLARHLQENTQLHMRLLAQAVHNVNLALRPCDAASPSRGCRPEDPNYEETIKQLESRLVRQDHQIRELTAKMETQSMYVGELKRTIRTLEDKVAEMEAQQCNGIYIWKIGNFGMHLKSQEEERPVVIHSPGFYTGRPGYKLCMRLHLQLPTAQRCANYISLFVHTMQGEYDSHLPWPFQGTIRLTILDQSEALIRQNHEEVMDAKPELLAFQRPTIPRNPKGFGYVTFMHLEALRQGTFIKDDTLLVRCEVSTRFDMGGLRKEGFQPRSTDAGV
- binding [2]: binds

B7: Flag-TRAF6-289-530 (domain or fragment, UniProt P70196 289-530)
chain: AASPSRGCRPEDPNYEETIKQLESRLVRQDHQIRELTAKMETQSMYVGELKRTIRTLEDKVAEMEAQQCNGIYIWKIGNFGMHLKSQEEERPVVIHSPGFYTGRPGYKLCMRLHLQLPTAQRCANYISLFVHTMQGEYDSHLPWPFQGTIRLTILDQSEALIRQNHEEVMDAKPELLAFQRPTIPRNPKGFGYVTFMHLEALRQGTFIKDDTLLVRCEVSTRFDMGGLRKEGFQPRSTDAGV
- binding [2]: no binding
